# In PMC4336329 (PLoS ONE, 2015):
# In all, about 310,000 compounds went through this assay and about 14,000 (4.5%) showed an effect of 50% or more. The effect is printed as a negative number. Some of the results follow.
# Molecular target: human ether-à-go-go-related gene (hERG) potassium channel (human, UniProt Q12809)
# Assay: primary screen, population patch clamp on CHO cells stably expressing hERG
# 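Further: peak tail current of the secondary pulse compared with the same well before compound.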
# Chain of human ether-à-go-go-related gene (hERG) potassium channel (Q12809 whole entry, looked up): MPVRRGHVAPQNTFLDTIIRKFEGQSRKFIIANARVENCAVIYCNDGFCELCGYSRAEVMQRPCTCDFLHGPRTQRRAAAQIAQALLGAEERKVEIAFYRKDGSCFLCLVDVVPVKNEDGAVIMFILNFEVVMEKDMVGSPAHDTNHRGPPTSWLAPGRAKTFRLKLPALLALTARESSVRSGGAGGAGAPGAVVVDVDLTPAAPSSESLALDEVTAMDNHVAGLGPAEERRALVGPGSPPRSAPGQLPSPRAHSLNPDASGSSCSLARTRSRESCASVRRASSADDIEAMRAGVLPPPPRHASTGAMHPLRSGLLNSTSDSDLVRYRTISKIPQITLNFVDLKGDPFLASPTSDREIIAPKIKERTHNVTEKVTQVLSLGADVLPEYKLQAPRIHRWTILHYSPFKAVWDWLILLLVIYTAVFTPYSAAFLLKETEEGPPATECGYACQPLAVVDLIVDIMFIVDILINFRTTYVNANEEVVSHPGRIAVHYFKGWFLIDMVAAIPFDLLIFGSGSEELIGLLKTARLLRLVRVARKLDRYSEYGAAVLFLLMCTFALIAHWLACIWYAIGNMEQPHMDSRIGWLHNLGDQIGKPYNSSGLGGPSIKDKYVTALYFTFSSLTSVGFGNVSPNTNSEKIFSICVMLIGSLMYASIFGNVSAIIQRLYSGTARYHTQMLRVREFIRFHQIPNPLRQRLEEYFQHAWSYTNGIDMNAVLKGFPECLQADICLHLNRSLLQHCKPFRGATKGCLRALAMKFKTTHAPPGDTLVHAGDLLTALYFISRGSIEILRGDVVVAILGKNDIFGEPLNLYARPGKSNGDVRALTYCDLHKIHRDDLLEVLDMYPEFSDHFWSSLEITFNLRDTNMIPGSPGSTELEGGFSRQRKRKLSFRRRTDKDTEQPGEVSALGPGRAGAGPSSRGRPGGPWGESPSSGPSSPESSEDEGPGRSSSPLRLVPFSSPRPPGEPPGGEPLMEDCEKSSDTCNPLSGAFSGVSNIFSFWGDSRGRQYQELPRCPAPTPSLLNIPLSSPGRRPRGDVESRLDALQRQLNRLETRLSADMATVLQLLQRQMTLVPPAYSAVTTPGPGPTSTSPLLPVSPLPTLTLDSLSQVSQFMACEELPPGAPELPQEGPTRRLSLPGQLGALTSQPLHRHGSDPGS
row,SMILES,"hERG current change (%, negative = inhibition) at 10uM"
1,Cc1cc(SCc2ccc(Cl)cc2Cl)nc(=O)[nH]1,3.63%
2,COc1ccccc1NC(=O)c1ccc([N+](=O)[O-])cc1[N+](=O)[O-],-19.6%
3,C/C(=N/NC(=O)c1ccc(-c2ccccc2)cc1)c1cc(O)cc(O)c1,12%
4,N=c1c(-c2nc3ccccc3[nH]2)cc(C(=O)c2ccco2)nn1-c1ccccc1,-59.5%
5,CS(=O)(=O)N1CCCC(C(=O)N2CCN(c3cccc(Cl)c3)CC2)C1 (stereo not shown),-9.27%
6,O=C(O)c1ccc(C(=O)O)c(C(=O)c2ccccc2)c1,1.72%
7,COc1cccc(C(NC(=O)c2ccccc2F)NC(=O)c2ccccc2F)c1,-11.1%
8,COCCn1c(C)nc2oc3ccc(Br)cc3c(=O)c2c1=O,-42.7%
9,O=C(c1nc2ccccc2s1)N1CCSCC1,-8.27%
10,CCCCn1c(N)c(N(CCOC)C(=O)c2cc(Cl)nc3ccccc23)c(=O)[nH]c1=O,6.3%
11,CN1CCN(CCCNC(=O)c2ccc3c(c2)N(Cc2ccc(F)cc2)CCS3)CC1,-26.7%
12,Cc1nc2ccccc2n1CC(O)COc1ccccc1Cl (stereo not shown),-15%
13,CN1CC(=O)N2C(c3cccc([N+](=O)[O-])c3)c3[nH]c4ccccc4c3C[C@H]2C1=O (stereo partly shown),11.4%
14,Br.CCCn1c(=N)n(CC(=O)OCC)c2ccccc21,-4.66%
15,COCCN1CCc2c(C)nc3c(-c4ccc(OC)c(OC)c4)cnn3c21,-4.31%
16,CCOC(=O)N1CCN(C(=O)COC(=O)Cc2ccc(Cl)cc2)CC1,-14.3%
17,CC(C)C(=O)Nc1cccc(NC(=S)NC(=O)c2ccc3c(c2)OCO3)c1,17.4%
18,O=C(NC(=S)NC1C2CC3CC(C2)CC1C3)c1ccccc1 (stereo not shown),5.43%
19,N#Cc1ccc(COC(=O)CCc2c[nH]c3ccccc23)cc1,-20.5%
20,COc1ccc(C(=O)/C=C2/C(=O)Nc3ccccc32)c(OC)c1,12.7%
21,N#Cc1cc(-c2ccccc2)nc(N2CCNCC2)n1,-11.3%
22,COc1cc(/C=C(\C#N)c2nc3ccccc3o2)ccc1O,-4.04%
23,Cc1csc(NC(=O)Cn2cnnn2)n1,9.19%

row,SMILES,"hERG current change (%, negative = inhibition) at 10uM"
1,CN(C)C(CNC(=S)Nc1ccccc1Cl)c1cccnc1 (stereo not shown),3.25%
2,O=C1c2ccccc2CN2C(=O)c3ccccc3CN12,29.6%
3,Cc1ccc(C(=O)C[n+]2cc(Br)cc(Br)c2)cc1[N+](=O)[O-].[Br-],-23.2%
4,CCOC1(OCC)C(c2ccc(N)cc2)C(C#N)(C#N)C1(OCC)OCC (stereo not shown),16.6%
5,O=C1/C(=C/c2ccc(N3CCOCC3)o2)SC(=Nc2ccccc2)N1CCc1c[nH]c2ccccc12,3.77%
6,COC(=O)c1ccsc1NC(=O)C1=COCCO1,7.95%
7,COc1cccc(C(=O)N2CCC(n3nccc3NC(=O)C3CCOC3)CC2)c1 (stereo not shown),-13%
8,c1coc(CNC2CCCCCCC2)c1,10.1%
9,Cc1cc(NC(=O)c2cccc(N3C(=O)CCC3=O)c2)no1,-23.9%
10,O=C(Oc1coc(CSc2ncccn2)cc1=O)c1ccc(Br)o1,-13.8%
11,CC(C)CSc1nc2ccccc2n1CC(N)=O,5.81%
12,Cc1c(-n2cc(C(=O)c3cc(F)ccc3O)cc(C#N)c2=O)c(=O)n(-c2ccccc2)n1C,13.4%
13,CC(=O)Nc1nnc(-c2ccco2)o1,29%
14,O=C(COc1ccc2c(c1)OCO2)Nc1ccccc1C(F)(F)F,-11.9%
15,COc1cc(NC(=O)c2cc(-c3ccc4c(c3)OCO4)on2)cc(OC)c1OC,1.46%
16,CCC(=O)Nc1cc(C(=O)OCC(=O)c2ccccc2)ccc1C,2.56%
17,C=CCOc1ccccc1CN1CCC(CO)(CCOc2ccccc2)CC1,-81.9%
18,Cc1ccc2c(c1)nc(NCCCO)n2C,-3.54%
19,COc1ccc(NC(=O)CSc2ccc(-c3ccco3)nn2)cc1OC,-12.2%
20,Nc1nncn1C(=O)CCc1ccccc1,-3.41%
21,O=c1c2c3c(sc2nc(N2CCNCC2)n1-c1cccc(Cl)c1)CCCCC3,-37.9%
22,Cc1cc(Br)ccc1NC(=O)C(C)c1ccc([N+](=O)[O-])cc1 (stereo not shown),-70.7%
23,CCC(OC(=O)c1cccs1)C(=O)NCc1ccco1 (stereo not shown),15.9%

row,SMILES,"hERG current change (%, negative = inhibition) at 10uM"
1,CCOC(=O)Cc1csc(NC(=O)c2cc(-c3ccncc3)nc3ccccc23)n1,11.9%
2,CCOCCCNC(=O)C(c1ccc(C)cc1)N1CCOCC1 (stereo not shown),4.95%
3,Cn1nnnc1SCC(=O)NCCc1ccc(Cl)cc1,-0.328%
4,CCN(CC(=O)Nc1ccc2c(c1)OCCO2)C(=O)C1CCCCC1,-2.6%
5,Cc1ccccc1NC(=S)N(CCc1c(C)[nH]c2ccc(F)cc12)Cc1cccnc1,24.2%
6,Br.Nc1ccc(OCC(O)C[n+]2ccc(CCS(=O)(=O)[O-])cc2)cc1 (stereo not shown),18.4%
7,COc1cc(-c2nnc(NC(=O)CCS(=O)(=O)c3ccccc3)o2)cc(OC)c1OC,8.33%
8,Cc1ccc2cc(C#N)c(N3CCCN(C(=O)C4CCCO4)CC3)nc2c1 (stereo not shown),-36%
9,C[C@]12C[C@H](O)[C@H]3[C@@H](CCC4=CC(=O)CC[C@@]43C)[C@@H]1CC[C@@H]2C(=O)CO,0.529%
10,COc1ccc(Nc2ncnc3sc(C)cc23)c(OC)c1.Cl,7.32%
11,CCCc1cc2c(=O)c(-c3ccccn3)c(C)oc2cc1O,0.616%
12,CCn1c(COc2ccccc2OC)nnc1SCC(=O)NC1CCCC1,-4.79%
13,CCOC(=O)CCC(=O)N1CCOCCN(C(=O)CCC(=O)OCC)CCOCC1,14.3%
14,CC(C)(C)n1cnc2cc(NS(=O)(=O)c3ccccc3)ccc21,-18.6%
15,CCOc1ccccc1NC(=O)C(c1ccccc1)N1CCN(C(=O)c2ccco2)CC1 (stereo not shown),-57.7%
16,CC(C)C(c1nnnn1C1CCCCC1)N1CCOCC1 (stereo not shown),1.7%
17,COc1ccc(-c2cc(C(F)(F)F)nc(SCC(=O)N3CCOCC3)n2)cc1OC,-14.5%
18,COc1ccc(CCC(=O)NNC(=O)c2cc(Cl)ccc2OC)cc1OC,0.534%
19,COCC(COS(N)(=O)=O)C(C)C (stereo not shown),9.44%
20,O=C(Nc1ccc(Cl)cc1C(=O)NCC1CCCO1)c1ccc(Cl)cc1Cl (stereo not shown),-10.2%
21,Cc1cccc(C(=O)NCC(=O)NNC(=O)c2ccccc2O)c1,-1.97%
22,COc1cc(/C=N/NC2=NCCCCC2)ccc1O.Cl,4.28%
23,O=C(NCCCCNC(=O)c1ccccc1Cl)c1ccccc1Cl,10.4%

row,SMILES,"hERG current change (%, negative = inhibition) at 10uM"
1,CCC(C)Sc1cccc(-c2nc3ccc(Cl)cn3c2NCc2ccccc2)c1.O=C(O)C(F)(F)F (stereo not shown),8.38%
2,CCn1c(SCC(=O)NCC2CCCO2)nc2c([nH]c3ccccc32)c1=O (stereo not shown),-1.03%
3,O=C(O)CC1SC(=Nc2cccc(C(F)(F)F)c2)NC1=O (stereo not shown),5.13%
4,O=C(COC(=O)c1cccs1)c1ccccc1,5.96%
5,Cc1ccccc1NCCC(=O)Nc1ccc(Cl)cc1,-9.8%
6,COC(=O)[C@H](CCSC)NC(=O)N1CCC(C)CC1,-8.94%
7,COc1ccc(CNC(=O)c2cnc3cc(C)ccn3c2=O)cc1,-8.79%
8,O=C(CC1NCCNC1=O)Nc1ccc(Oc2ccccc2)cc1 (stereo not shown),25.6%
9,CC(C)CCNC(=O)C1CCN(S(=O)(=O)c2ccc(-n3cnnn3)cc2)CC1,-37.6%
10,COc1cc(N(C(=O)Cc2cccs2)C(C(=O)NC2CCCCC2)c2cccc(OC)c2OC)ccc1-n1cnnn1 (stereo not shown),-8.38%
11,CCOC(=O)C1=C(Cn2cnc3ccccc32)NC(=O)NC1c1ccc(OC)cc1 (stereo not shown),-19.7%
12,Cl.OC(CNCC#Cc1ccccc1)c1ccccc1 (stereo not shown),-0.364%
13,Cc1cc(=O)[nH]c(-n2[nH]c(C)cc2=O)n1,-1.59%
14,CCN1CCc2nc(NC(=O)c3ccc(S(=O)(=O)N(C)C)cc3)sc2C1,22.4%
15,Cc1ccc(-c2nnc(-c3ccccc3)c(-c3ccccc3)n2)cc1,4.51%
16,CC(C)(C)OC(=O)N1CCC(CNC(=O)c2cccs2)CC1,10.9%
17,CCN1C(=O)N[C@@H](c2cccc(C(F)(F)F)c2)[C@@H](C(=O)OC)[C@H]1C,-19%
18,O=C(CSc1ccc2ccccc2c1)NC1CCCc2ccccc21 (stereo not shown),8.2%
19,COc1cc(C(=O)Oc2ccccc2)ccc1OCc1c(C)noc1C,13.2%
20,Cc1ccc(C)c(NS(=O)(=O)c2c(C)ccc3nsnc23)c1,-3.02%
21,CCOc1ccc(N2C(=O)CC(N3CCN(C4CCc5ccccc5C4)CC3)C2=O)cc1 (stereo not shown),-71.5%
22,Cc1cccc(NS(=O)(=O)c2ccc3c(c2)OCCO3)c1,-3.57%
